Data: the supplement of paper PMC10037445
The full ranking holds about 2,900 compounds; the median of “IRF Lucia reporter activity, fold change vs agonist alone” is about 0.9, and the highest 2% start at about 2.8. This is one part of the list.

Tests used:
[1] = test system: RAW-Dual; assay: IRF Lucia reporter activity, fold change vs agonist alone; cytotoxicity flag (confluency mask): not cytotoxic; higher = enhanced IRF activity
Procedure, shortened: (§1)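 Library stock was pin-tooled at 50 nL into 384-well plates of RAW-Dual macrophages (50,000 cells/well, DMEM), followed 1 h later by a PRR agonist, and the cells were kept at 37 °C, 5% CO2. Supernatant collected after 20 hours was read for IRF by QuantiLuc luminescence and for NF-κB by QuantiBlue absorbance at 620 nm. Reporter activity is fold change over agonist-alone wells, and a well counted as cytotoxic when its IncuCyte confluency was below 70% of agonist controls in both mask sets.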

[2] = test system: RAW-Dual; assay: IRF Lucia reporter activity, fold change vs agonist alone; higher = enhanced IRF activity; conditions: library stock concentration (final ~1000-fold dilution): 10 mM, agonist: MPLA (TLR4) […]
Procedure, shortened: as §1

[3] = test system: RAW-Dual; assay: IRF Lucia reporter activity, fold change vs agonist alone; cytotoxicity flag (confluency mask): cytotoxic (confluency <70% of control); higher = enhanced IRF activity
Procedure, shortened: as §1

[4] = agonist: 3'3'-cGAMP (STING) 10 ug/mL
[5] = cytotoxicity flag (confluency mask): not cytotoxic

For `CC(=O)OC(C)(C)/C=C/C(=O)C(C)(O)C1C(O)CC2(C)C3CC=C4C(CC(O)C(=O)C4(C)C)C3(C)C(=O)CC12C` (stereo not drawn) (library stock concentration (final ~1000-fold dilution): 10 mM), the “IRF Lucia reporter activity” value [1, 4] was 0.0972 and the “IRF Lucia reporter activity” value ([1]; agonist: LPS (TLR4) 0.1 ug/mL) was 0.031.
With `O=c1[nH]c2ccccc2n1CCCN1CCC(n2c(=O)[nH]c3cc(Cl)ccc32)CC1` the “IRF Lucia reporter activity” value [2, 5] was 1.31.
`O=c1[nH]c2ccccc2n1CCCN1CCC(n2c(=O)[nH]c3cc(Cl)ccc32)CC1` (library stock concentration (final ~1000-fold dilution): 10 mM) was tested, and the “IRF Lucia reporter activity” value [1, 4] was 0.923 and the “IRF Lucia reporter activity” value ([1]; agonist: LPS (TLR4) 0.1 ug/mL) was 1.27.
For `CC1CCCC(=O)CCC/C=C/c2cc(O)cc(O)c2C(=O)O1` (stereo not drawn), the “IRF Lucia reporter activity” value [2, 5] was 1.44.
With `CC1CCCC(=O)CCC/C=C/c2cc(O)cc(O)c2C(=O)O1` (stereo not drawn) (library stock concentration (final ~1000-fold dilution): 10 mM) the “IRF Lucia reporter activity” value [1, 4] was 0.923 and the “IRF Lucia reporter activity” value ([1]; agonist: LPS (TLR4) 0.1 ug/mL) was 0.991.
In the case of `c1ccc2c(c1)Sc1ccccc1N2CC1CN2CCC1CC2` (stereo not drawn), the “IRF Lucia reporter activity” value ([2]; cytotoxicity flag (confluency mask): cytotoxic (confluency <70% of control)) is reported as 1.55.
With `c1ccc2c(c1)Sc1ccccc1N2CC1CN2CCC1CC2` (stereo not drawn) (library stock concentration (final ~1000-fold dilution): 10 mM) the “IRF Lucia reporter activity” value [3, 4] was 0.767 and the “IRF Lucia reporter activity” value ([3]; agonist: LPS (TLR4) 0.1 ug/mL) was 0.761.
`Cc1c(C(C)C2NCC(C)CC2O)ccc2c1CC1C2CC=C2CC(O)CCC21C` (stereo not drawn) (library stock concentration (final ~1000-fold dilution): 10 mM) was tested, and the “IRF Lucia reporter activity” value [1, 4] was 0.394 and the “IRF Lucia reporter activity” value ([1]; agonist: LPS (TLR4) 0.1 ug/mL) was 1.34.
With `Cc1c(C(C)C2NCC(C)CC2O)ccc2c1CC1C2CC=C2CC(O)CCC21C` (stereo not drawn) the “IRF Lucia reporter activity” value [2, 5] was 1.15.
With `CS(=O)(=O)c1ccc(C(=O)C2C(=O)CCCC2=O)c(Cl)c1` (library stock concentration (final ~1000-fold dilution): 10 mM) the “IRF Lucia reporter activity” value [1, 4] was 0.206 and the “IRF Lucia reporter activity” value ([1]; agonist: LPS (TLR4) 0.1 ug/mL) was 0.384.
`O=S(=O)(CC1CS1)c1ccc(Oc2ccccc2)cc1` (stereo not drawn) was tested, and the “IRF Lucia reporter activity” value [2, 5] was 2.5.
For `O=S(=O)(CC1CS1)c1ccc(Oc2ccccc2)cc1` (stereo not drawn) (library stock concentration (final ~1000-fold dilution): 10 mM), the “IRF Lucia reporter activity” value [1, 4] was 0.174 and the “IRF Lucia reporter activity” value ([1]; agonist: LPS (TLR4) 0.1 ug/mL) was 2.37.
In the case of `COc1ccc2c(c1)[nH]c1c(C)nccc12.Cl` (library stock concentration (final ~1000-fold dilution): 10 mM), the “IRF Lucia reporter activity” value [1, 4] is reported as 0.233 and the “IRF Lucia reporter activity” value ([1]; agonist: LPS (TLR4) 0.1 ug/mL) is reported as 0.0986.
In the case of `COc1ccc2c(c1)[nH]c1c(C)nccc12.Cl`, the “IRF Lucia reporter activity” value [2, 5] is reported as 0.144.
In the case of `C[N+]1(C)C2CC(OC(=O)C(CO)c3ccccc3)CC1C1OC12` (stereo not drawn), the “IRF Lucia reporter activity” value [2, 5] is reported as 0.903.
`C[N+]1(C)C2CC(OC(=O)C(CO)c3ccccc3)CC1C1OC12` (stereo not drawn) (library stock concentration (final ~1000-fold dilution): 10 mM) was tested, and the “IRF Lucia reporter activity” value [1, 4] was 1.07 and the “IRF Lucia reporter activity” value ([1]; agonist: LPS (TLR4) 0.1 ug/mL) was 0.83.
For `CCC12C=CCN3CCC4(C(=C(C(=O)OC)C1)Nc1ccccc14)C32.Cl` (stereo not drawn), the “IRF Lucia reporter activity” value [2, 5] was 0.567.
For `CCC12C=CCN3CCC4(C(=C(C(=O)OC)C1)Nc1ccccc14)C32.Cl` (stereo not drawn) (library stock concentration (final ~1000-fold dilution): 10 mM), the “IRF Lucia reporter activity” value [1, 4] was 0.952 and the “IRF Lucia reporter activity” value ([1]; agonist: LPS (TLR4) 0.1 ug/mL) was 0.735.
For `CC(=O)OC1CCC2(C)C(=CCC3C4CCC(=O)C4(C)CCC32)C1` (stereo not drawn), the “IRF Lucia reporter activity” value [2, 5] was 1.09.
With `CC(=O)OC1CCC2(C)C(=CCC3C4CCC(=O)C4(C)CCC32)C1` (stereo not drawn) (library stock concentration (final ~1000-fold dilution): 10 mM) the “IRF Lucia reporter activity” value [1, 4] was 1.01 and the “IRF Lucia reporter activity” value ([1]; agonist: LPS (TLR4) 0.1 ug/mL) was 1.9.
For `Br.CN1C2CC(OC(=O)C(CO)c3ccccc3)CC1C(O)C2` (stereo not drawn) (library stock concentration (final ~1000-fold dilution): 10 mM), the “IRF Lucia reporter activity” value [1, 4] was 0.968 and the “IRF Lucia reporter activity” value ([1]; agonist: LPS (TLR4) 0.1 ug/mL) was 0.959.
In the case of `CN1C(=O)C23CC4(C56CC78SSC(CO)(C(=O)N7C5Nc5ccccc56)N(C)C8=O)c5ccccc5NC4N2C(=O)C1(CO)SS3` (stereo not drawn) (library stock concentration (final ~1000-fold dilution): 10 mM), the “IRF Lucia reporter activity” value [3, 4] is reported as 0.0161 and the “IRF Lucia reporter activity” value ([3]; agonist: LPS (TLR4) 0.1 ug/mL) is reported as 0.0187.
For `C1CCc2nnnn2CC1`, the “IRF Lucia reporter activity” value [2, 5] was 1.16.
For `C1CCc2nnnn2CC1` (library stock concentration (final ~1000-fold dilution): 10 mM), the “IRF Lucia reporter activity” value [1, 4] was 1.08 and the “IRF Lucia reporter activity” value ([1]; agonist: LPS (TLR4) 0.1 ug/mL) was 1.32.
`C=CCN1CC(C(=O)N(CCCN(C)C)C(=O)NCC)CC2c3cccc4[nH]cc(c34)CC21` (stereo not drawn) (library stock concentration (final ~1000-fold dilution): 10 mM) was tested, and the “IRF Lucia reporter activity” value [1, 4] was 0.906 and the “IRF Lucia reporter activity” value ([1]; agonist: LPS (TLR4) 0.1 ug/mL) was 1.09.
For `C=CCN1CC(C(=O)N(CCCN(C)C)C(=O)NCC)CC2c3cccc4[nH]cc(c34)CC21` (stereo not drawn), the “IRF Lucia reporter activity” value [2, 5] was 1.34.
`CC[C@H]1CN2CC[C@]3(C(=O)Nc4ccccc43)[C@@H]2C[C@@H]1/C(=C\OC)C(=O)OC` (library stock concentration (final ~1000-fold dilution): 10 mM) was tested, and the “IRF Lucia reporter activity” value [1, 4] was 0.931 and the “IRF Lucia reporter activity” value ([1]; agonist: LPS (TLR4) 0.1 ug/mL) was 1.09.
With `COC1=CC2C3Cc4ccc(OC)c(O)c4C2(CCN3C)CC1=O.Cl` (stereo not drawn) (library stock concentration (final ~1000-fold dilution): 10 mM) the “IRF Lucia reporter activity” value [1, 4] was 1.17 and the “IRF Lucia reporter activity” value ([1]; agonist: LPS (TLR4) 0.1 ug/mL) was 1.15.
With `COC1=CC2C3Cc4ccc(OC)c(O)c4C2(CCN3C)CC1=O.Cl` (stereo not drawn) the “IRF Lucia reporter activity” value [2, 5] was 1.16.
`CC1=CC2Cc3[nH]c(=O)ccc3C3(C1)NCCCC23` (stereo not drawn) (library stock concentration (final ~1000-fold dilution): 10 mM) was tested, and the “IRF Lucia reporter activity” value [1, 4] was 1.05 and the “IRF Lucia reporter activity” value ([1]; agonist: LPS (TLR4) 0.1 ug/mL) was 1.22.
